This assay concerns the target T1, cynomolgus 5T4 protein (cynomolgus monkey, UniProt Q4R8Y9 35-355, limits assumed).
T1 construct: Coated protein in ELISA; the screening step names a cyno 5T4-His protein; also called cyno 5T4; recombinant cyno 5T4-His protein
T1 sequence (looked up): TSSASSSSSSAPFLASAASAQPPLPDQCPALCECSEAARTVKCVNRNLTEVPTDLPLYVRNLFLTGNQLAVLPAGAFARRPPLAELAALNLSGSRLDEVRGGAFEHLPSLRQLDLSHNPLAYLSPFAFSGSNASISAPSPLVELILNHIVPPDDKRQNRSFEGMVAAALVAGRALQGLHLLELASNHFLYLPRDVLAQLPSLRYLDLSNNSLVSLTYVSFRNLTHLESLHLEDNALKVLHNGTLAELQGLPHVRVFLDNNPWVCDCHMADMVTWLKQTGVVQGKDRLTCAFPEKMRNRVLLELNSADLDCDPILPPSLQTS
Nature of the assay: ELISA, coated antigen. The protocol:
ELISA testing was carried out to evaluate the binding of chimeric antibodies to human and cynomolgus, respectively. The antibody portion of naptumomab (NeoTX) that targets 5T4 (abbreviated as naptumomab in the present disclosure), was generated and used as a benchmark.
Briefly, microtiter plates were coated with human and cynomolgus 5T4 proteins at […] in PBS, 100 μl/well at 4° C. overnight, then blocked with 150 μl/well of 1% BSA. Serial dilutions of chimeric antibodies were added to each well and incubated for 1 hour at RT. The plates were washed with PBS/Tween and then incubate with mouse-anti-human IgG Fc antibody conjugated with Horse Radish Peroxidase (HRP) for 30 mins at RT. After washing, the plates were developed with TMB substrate and analyzed by spectrophotometer at OD 450 nm. All the 5T4 chimeric mAbs bound to human and cynomolgus 5T4 (FIG. 1-2 and Table 3).
(In an ELISA, binding on a coated surface is turned into a signal by an enzyme label.)

Certain results were filed several times, with different values. Only these are listed. The source may hold further records. Values given together read as repeated measurements on other runs, samples or individuals; a mean can stand among them.

One may read the EC50 as the midpoint of the concentration-response curve. Low values mean higher potency in that assay, high ones lower potency in that assay.

Take “naptumomab (antibody portion of naptumomab (NeoTX) that targets 5T4)”: the EC50 is 2.02 nM, 0.16 nM, 0.17 nM [lines of one column].

For the origin of these results see patent publication US20250154277A1 (CONCEPT TO MEDICINE BIOTECH, published 2025).
